In PubChem BioAssay (Tox21):
“And” between values parts separate entries of the source, which are not always exact repeats. Identical values can stand only once. Inconclusive results, whose numbers are uncertain, are shown with a selection of clear calls. For some of these results: A potency beside an inconclusive call is a rough fit, not a confirmed value. The source made the active and inactive calls. Unless noted, calls come from the whole dose curve; as a rule, active = well fitted curve in the direction sought with a large enough effect in the repeat runs; inconclusive = weak or mixed curves; inactive = no such curve, though single readings can be large; an effect the other way counts as inactive or inconclusive.

Experiments:
[1] = molecular target: Progesterone receptor (Homo sapiens) (UniProt P06401); experiment: qHTS assay to identify small molecule antagonists of the progesterone receptor (PR) signaling pathway (AID 1346795; active = well fitted inhibition curve with a large enough effect in the signal ratio in the repeat runs, not every such curve was filed as active; inconclusive = weak or mixed curves; the % refers to the signal ratio; note: potency is the fitted concentration of half-maximal effect; for activity change, negative = inhibition: % is set by controls: 0 for no effect and ±100 for the full control effect); settings: PR-UAS-bla HEK293T, beta-lactamase FRET ratio, 16 h; activity change, negative = inhibition: at 92.4 µM (top of the series) unless noted
UniProt P06401, sequence (P06401 whole entry, looked up): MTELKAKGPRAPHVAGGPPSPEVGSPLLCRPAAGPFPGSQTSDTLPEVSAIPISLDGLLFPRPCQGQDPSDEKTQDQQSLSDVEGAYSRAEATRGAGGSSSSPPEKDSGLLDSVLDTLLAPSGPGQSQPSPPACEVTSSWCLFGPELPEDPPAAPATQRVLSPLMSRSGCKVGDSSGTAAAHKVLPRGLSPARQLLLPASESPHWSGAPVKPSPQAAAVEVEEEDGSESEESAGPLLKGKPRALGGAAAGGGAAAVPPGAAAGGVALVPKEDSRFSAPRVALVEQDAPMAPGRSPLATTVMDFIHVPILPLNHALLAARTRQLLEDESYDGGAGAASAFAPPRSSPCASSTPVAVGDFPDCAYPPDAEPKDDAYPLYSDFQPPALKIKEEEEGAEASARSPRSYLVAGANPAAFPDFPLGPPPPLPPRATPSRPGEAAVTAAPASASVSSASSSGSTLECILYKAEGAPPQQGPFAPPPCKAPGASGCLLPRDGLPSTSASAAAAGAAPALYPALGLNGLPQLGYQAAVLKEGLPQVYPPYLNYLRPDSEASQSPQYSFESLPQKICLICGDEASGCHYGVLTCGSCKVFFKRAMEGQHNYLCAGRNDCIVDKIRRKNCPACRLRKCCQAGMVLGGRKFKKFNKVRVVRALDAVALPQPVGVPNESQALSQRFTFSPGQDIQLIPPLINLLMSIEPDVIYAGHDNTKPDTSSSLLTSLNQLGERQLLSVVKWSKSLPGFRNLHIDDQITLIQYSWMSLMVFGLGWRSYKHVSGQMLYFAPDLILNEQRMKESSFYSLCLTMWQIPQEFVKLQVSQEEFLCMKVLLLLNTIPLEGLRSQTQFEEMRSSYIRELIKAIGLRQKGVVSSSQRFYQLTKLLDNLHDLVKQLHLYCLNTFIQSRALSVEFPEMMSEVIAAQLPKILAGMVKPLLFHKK
Outline: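 Screening used a GripTite HEK293T line with PR-responsive UAS-beta-lactamase. Cells were challenged with compound in the presence of 1 nM R5020 final for 16 hr at 37C; B/G FRET substrate, 2 hr room temperature, fluorescence.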

[2] = qHTS assay to identify small molecule agonists of the progesterone receptor (PR) signaling pathway - cell viability counter screen (AID 1346799; calls by dose curve; note: nearly all actives have a fitted effect of over 45% in size; note: potency is the fitted concentration of half-maximal effect; for activity change, negative = cytotoxicity: % is set by controls: 0 for no effect and ±100 for the full control effect)
Outline: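 Using the same plates as the PR reporter screen, HEK293T PR-UAS-bla cells received compounds for 16 hr at 37C and were then lysed with CellTiter-Glo; luminescence was read 30 min later at room temperature.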

[3] = molecular target: Cytochrome P450 2D6 (Homo sapiens) (UniProt P10635); experiment: Cytochrome P450 Family 2 Subfamily D Member 6 (CYP2D6) small molecule antagonists: luciferase reporter qHTS assay (AID 1671196); note: nearly all actives have a fitted effect of over 50% in size; note: potency is the fitted concentration of half-maximal effect
UniProt P10635, sequence (P10635 whole entry, looked up): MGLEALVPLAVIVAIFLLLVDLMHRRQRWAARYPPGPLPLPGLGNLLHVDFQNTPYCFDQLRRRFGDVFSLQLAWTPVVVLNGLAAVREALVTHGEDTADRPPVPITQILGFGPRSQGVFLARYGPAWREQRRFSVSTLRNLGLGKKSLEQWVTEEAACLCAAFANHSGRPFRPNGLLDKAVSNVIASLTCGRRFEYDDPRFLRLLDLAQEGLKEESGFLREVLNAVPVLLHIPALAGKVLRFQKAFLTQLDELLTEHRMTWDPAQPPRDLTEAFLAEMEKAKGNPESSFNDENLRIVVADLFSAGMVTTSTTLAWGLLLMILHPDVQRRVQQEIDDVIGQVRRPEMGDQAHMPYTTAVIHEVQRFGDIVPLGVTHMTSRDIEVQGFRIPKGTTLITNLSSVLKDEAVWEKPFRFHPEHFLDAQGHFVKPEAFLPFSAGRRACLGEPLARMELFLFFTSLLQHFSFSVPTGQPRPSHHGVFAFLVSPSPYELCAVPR
Outline: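 Inhibition of CYP2D6 was gauged by loss of luminescence, since light produced tracks the luciferin generated from a proluciferin substrate. A 10 min room-temperature preincubation preceded 1 h NADPH-supported turnover.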

[4] = molecular target: Cytochrome P450 2C19 (Homo sapiens) (UniProt P33261); experiment: Cytochrome P450 Family 2 Subfamily C Member 19 (CYP2C19) small molecule antagonists: luciferase reporter qHTS assay (AID 1671197); note: nearly all actives have a fitted effect of over 65% in size; note: potency is the fitted concentration of half-maximal effect
UniProt P33261, sequence (P33261 whole entry, looked up): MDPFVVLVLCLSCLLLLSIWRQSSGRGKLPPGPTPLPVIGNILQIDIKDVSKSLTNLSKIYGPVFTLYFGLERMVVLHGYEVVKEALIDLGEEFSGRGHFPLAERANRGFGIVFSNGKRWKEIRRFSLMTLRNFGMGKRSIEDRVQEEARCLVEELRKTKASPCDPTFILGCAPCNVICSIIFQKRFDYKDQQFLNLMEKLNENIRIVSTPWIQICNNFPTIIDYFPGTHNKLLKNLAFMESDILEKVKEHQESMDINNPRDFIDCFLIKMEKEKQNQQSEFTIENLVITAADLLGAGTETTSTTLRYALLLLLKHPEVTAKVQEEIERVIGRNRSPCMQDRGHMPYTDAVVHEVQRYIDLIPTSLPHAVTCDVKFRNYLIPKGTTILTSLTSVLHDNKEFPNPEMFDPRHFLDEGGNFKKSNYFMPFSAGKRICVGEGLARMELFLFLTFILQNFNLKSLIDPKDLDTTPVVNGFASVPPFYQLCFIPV
Outline: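 Inhibition of CYP2C19 was scored from loss of luminescence in a P450-Glo proluciferin substrate assay, NADPH-started and run 1 h at 37C, with ketoconazole as positive control.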

[5] = molecular target: Cytochrome P450 2C9 (Homo sapiens) (UniProt P11712); experiment: Cytochrome P450 Family 2 Subfamily C Member 9 (CYP2C9) small molecule antagonists: luciferase reporter qHTS assay (AID 1671198); note: nearly all actives have a fitted effect of over 50% in size; note: potency is the fitted concentration of half-maximal effect
UniProt P11712, sequence (P11712 whole entry, looked up): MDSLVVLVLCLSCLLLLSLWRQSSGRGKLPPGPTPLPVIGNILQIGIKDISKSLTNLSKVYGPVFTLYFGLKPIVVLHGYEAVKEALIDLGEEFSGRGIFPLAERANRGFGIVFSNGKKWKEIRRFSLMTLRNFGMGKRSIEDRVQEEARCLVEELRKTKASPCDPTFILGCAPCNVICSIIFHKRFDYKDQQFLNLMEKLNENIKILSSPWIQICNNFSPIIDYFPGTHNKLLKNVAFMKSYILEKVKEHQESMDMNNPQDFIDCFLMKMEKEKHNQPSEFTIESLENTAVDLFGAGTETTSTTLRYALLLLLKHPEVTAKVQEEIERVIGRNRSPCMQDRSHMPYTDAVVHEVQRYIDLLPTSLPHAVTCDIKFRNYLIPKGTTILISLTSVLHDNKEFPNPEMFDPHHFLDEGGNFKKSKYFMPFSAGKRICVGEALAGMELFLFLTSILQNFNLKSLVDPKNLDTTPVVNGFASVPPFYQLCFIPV
Outline: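 CYP2C9 activity was measured with a P450-Glo proluciferin substrate. Enzyme–substrate mix was held with compound for 10 min at room temperature, then NADPH regeneration solution was added for 1 h at 37C. Luciferin product was read as luminescence.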

[6] = Caspase-3/7 induction in CHO-K1 cells by small molecules, qHTS cell viability counter screen (AID 1346979); settings: CellTiter-Fluor fluorescence, 17 h; activity change, negative = cytotoxicity: at 92.4 µM (top of the series); note: nearly all actives have a fitted effect of over 35% in size; note: potency is the fitted concentration of half-maximal effect; for activity change, negative = cytotoxicity: % is set by controls: 0 for no effect and ±100 for the full control effect
Outline: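 Multiplexed with Caspase-Glo 3/7 in CHO-K1 cells, this counter screen added CellTiter-Fluor after 16hr of compound exposure and recorded fluorescence 1hr later.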

[7] = Caspase-3/7 induction in HepG2 cells by small molecules, qHTS cell viability counter screen (AID 1346981); note: nearly all actives have a fitted effect of over 30% in size; note: potency is the fitted concentration of half-maximal effect; for activity change, negative = cytotoxicity: % is set by controls: 0 for no effect and ±100 for the full control effect
Outline: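 Counter screen for cytotoxicity: HepG2 exposed 16 hr to compounds, then CellTiter-Fluor viability signal (fluorescence, 1 hr reagent incubation).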

[8] = molecular target: Nuclear receptor subfamily 1 group I member 2 (Homo sapiens) (UniProt O75469); experiment: Human pregnane X receptor (PXR) small molecule agonists, qHTS assay (AID 1346982); note: nearly all actives have a fitted effect of over 35% in size; note: potency is the fitted concentration of half-maximal effect
Outline: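 Luminescence (ONE-Glo, 30 min RT) after 24 hr compound exposure of PXR-Luc HepG2 cells; cells rested 5 hr post-plating in 5% charcoal-stripped FBS medium.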

[9] = molecular target: Nuclear receptor subfamily 1 group I member 2 (Rattus norvegicus) (UniProt Q9R1A7); experiment: Rat pregnane X receptor (rPXR) activation by small molecules, qHTS assay (AID 1346983); settings: rPXR luciferase reporter cells, One-Glo luminescence, 24 h; max activation: stronger effect = higher value; note: potency is the fitted concentration of half-maximal effect; nearly all actives have a fitted effect of over 20% in size
UniProt Q9R1A7, sequence (Q9R1A7 whole entry, looked up): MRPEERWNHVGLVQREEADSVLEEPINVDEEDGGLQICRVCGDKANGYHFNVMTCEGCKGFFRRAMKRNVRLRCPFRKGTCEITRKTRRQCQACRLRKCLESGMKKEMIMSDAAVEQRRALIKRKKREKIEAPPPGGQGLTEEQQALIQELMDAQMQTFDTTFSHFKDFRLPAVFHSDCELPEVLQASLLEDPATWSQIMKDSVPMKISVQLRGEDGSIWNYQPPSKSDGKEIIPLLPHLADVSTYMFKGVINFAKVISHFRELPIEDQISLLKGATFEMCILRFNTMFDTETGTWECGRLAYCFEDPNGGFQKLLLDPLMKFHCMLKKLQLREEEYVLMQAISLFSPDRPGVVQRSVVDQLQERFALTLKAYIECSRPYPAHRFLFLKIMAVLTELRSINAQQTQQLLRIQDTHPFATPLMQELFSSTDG
Outline: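 Cell-based rPXR luciferase reporter assay, 2,000 cells per well, rested 5hr at 37 C before compound addition in DMSO, then 24 hr at 37 C. One-Glo reagent was added and luminescence read after 30 min at room temperature.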

[10] = molecular target: Nuclear receptor subfamily 1 group I member 2 (Homo sapiens) (UniProt O75469); experiment: Human pregnane X receptor (PXR) activation by small molecules, qHTS assay (AID 1346985); note: potency is the fitted concentration of half-maximal effect; nearly all actives have a fitted effect of over 40% in size
Outline: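 DPX-2 cells (HepG2 co-transfected with a PXR response element and a CYP3A4-promoter luciferase construct) were seeded at 2,000 per well, rested 5 hr at 37C, then exposed to DMSO-dissolved compounds for 24 hr. Activation was read as luciferase luminescence.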

[11] = Human pregnane X receptor (PXR) small molecule agonists, qHTS cell viability counter screen (AID 1346977); note: potency is the fitted concentration of half-maximal effect; nearly all actives have a fitted effect of over 50% in size
Outline: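 After a 5hr pre-incubation, PXR-Luc HepG2 cells received compounds plus positive control in DMSO and were kept 24hr at 37C. Cell viability was quantified by fluorescence from CellTiter-Fluor added for the final hour.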

[12] = qHTS assay to identify small molecule antagonists of the TGF-beta/Smad signaling pathway (AID 1346924; active = well fitted inhibition curve with a large enough effect in the signal ratio in the repeat runs, not every such curve was filed as active; inconclusive = weak or mixed curves; the % refers to the signal ratio); settings: SBE-bla HEK293T, TGF-beta/Smad reporter, beta-lactamase ratio; activity, negative = inhibition: at 76.8 µM (top of the series) unless noted
Outline: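 SBE-bla HEK 293T cells were plated overnight, then received compound in DMSO plus TGF-beta1 (added as a 0.25 ng/mL solution) and were incubated 5 h at 37 C. Beta-lactamase reporter activity was read after 2 h at room temperature with LiveBLAzer B/G FRET substrate (ex 405, em 460/530 nm).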

[13] = molecular target: Nuclear receptor subfamily 1 group I member 2 (Homo sapiens) (UniProt O75469); experiment: CYP3A4 induction through human pregnane X receptor (PXR) by small molecules, qHTS assay (AID 1346984); note: potency is the fitted concentration of half-maximal effect; nearly all actives have a fitted effect of over 40% in size
Outline: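 DPX-2 reporter cells; 24h cpd, 37C; Luciferin-IPA 3uM final x3h; One-Glo 30 min RT; lumi read.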

[14] = Caspase-3/7 induction in CHO-K1 cells by small molecules, qHTS assay (AID 1346980); note: nearly all actives have a fitted effect of over 15% in size; note: potency is the fitted concentration of half-maximal effect
Outline: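 Wild-type cells were seeded at 1,500 per well and settled 5 hr at 37 C, 5% CO2, then exposed to DMSO-dissolved compounds for 17 hr. Caspase-Glo 3/7 reagent was added, and luminescence was read after 30min at room temperature.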
Tags give direction and shape of the fitted curve.

## O=C(Oc1ccccc1)c1ccc2ccccc2c1O
[1]
  Potency: active: 30.6 µM
[2]
  Potency: inconclusive: 54.5 µM [rising, partial curve, poor fit]
[3]
  Potency: inconclusive: 71 µM [inhibitor, partial curve]

## c1ccc(CNc2ncnc3c2ncn3C2CCCCO2)cc1 (stereo not drawn)
[1]
  Potency: inactive
[2]
  Potency: inconclusive: 68.6 µM [rising, single point]
[4]
  Potency: inconclusive: 79.6 µM [inhibitor, single point]
[5]
  Potency: inconclusive: 35.6 µM [inhibitor, partial curve]

## Oc1ccc(Cc2ccccc2O)cc1
[1]
  Potency: active: 43.8 µM and active: 48.6 µM
[2]
  Potency: inconclusive: 68.6 µM [rising, single point]
[6]
  Potency: inactive
[7]
  Potency: inactive
[8]
  Potency: inconclusive: 54.5 µM [activator]
[3]
  Potency: inconclusive: 64.1 µM [inhibitor, partial curve]
[5]
  Potency: inconclusive: 90.5 µM [inhibitor, partial curve, poor fit] and inconclusive: 71 µM [inhibitor, partial curve, poor fit]

## CCC(CC)(CC(=O)Nc1cccc(/C=C/c2nc(C3CCC3)cs2)c1)C(=O)O
[1]
  activity change, negative = inhibition: inconclusive: -41.2% [at 42.5 µM]
[2]
  Potency: inconclusive: 13.3 µM [rising, single point]
[6]
  Potency: inconclusive: 29.8 µM [cytotoxic, single point]
[7]
  Potency: inactive
[8]
  Potency: active: 23.7 µM
[9]
  Potency: inconclusive: 15.8 µM [activator, partial curve, poor fit]
[10]
  Potency: inconclusive: 17.8 µM [activator, partial curve, poor fit]

## CCOC(=O)N1CCC(Nc2ccc(Cl)cc2N)CC1
[1]
  activity change, negative = inhibition: inconclusive: -26.7% [at 42.5 µM]
[2]
  Potency: inactive
[6]
  Potency: inactive
[3]
  Potency: inconclusive: 15.5 µM [inhibitor, partial curve]

## Nc1ccc([N+](=O)[O-])c(C(F)(F)F)c1
[1]
  Potency: inconclusive: 29.8 µM [falling, partial curve]
[2]
  Potency: inconclusive: 2.98 µM [rising, full curve, poor fit]
[6]
  Potency: active: 29.8 µM
[7]
  Potency: inconclusive: 33.5 µM [cytotoxic, single point]
[3]
  Potency: inactive
[5]
  Potency: inconclusive: 38.9 µM [inhibitor, partial curve]

## CC(C)(C)c1cc(CO)cc(C(C)(C)C)c1O
[1]
  Potency: inconclusive: 31.2 µM
[2]
  Potency: inconclusive: 62.3 µM [rising, partial curve]
[8]
  Potency: inconclusive: 69.9 µM [activator]

## CN1C(C(=O)Nc2ccccn2)=C(O)c2sccc2S1(=O)=O
[1]
  Potency: inactive
[2]
  Potency: inactive
[6]
  Potency: inconclusive: 29.8 µM [cytotoxic, partial curve, poor fit]
[3]
  Potency: inactive
[5]
  Potency: active: 13.8 µM

## CN(C)c1ccc(O)c2c1C[C@H]1C[C@H]3[C@H](N(C)C)C(=O)C(C(N)=O)=C(O)[C@@]3(O)C(=O)C1=C2O
[1]
  activity change, negative = inhibition: inconclusive: 0.768%
[2]
  Potency: inconclusive: 2.73 µM [cytotoxic, single point] and inactive
[11]
  Potency: inconclusive: 68.6 µM [cytotoxic, partial curve, poor fit]
[7]
  Potency: active: 54.5 µM and active: 29.8 µM
[3]
  Potency: inconclusive: 89.4 µM [inhibitor, single point]
[4]
  Potency: inconclusive: 89.4 µM [inhibitor, single point] and inactive
[5]
  Potency: inconclusive: 71 µM [inhibitor, partial curve]

## O=c1c(-c2ccc(O)cc2)coc2cc(O)ccc12
[1]
  Potency: inconclusive: 38.6 µM [falling, partial curve]
[2]
  Potency: inactive
[6]
  Potency: inconclusive: 76.2 µM [cytotoxic, partial curve, poor fit]
[3]
  Potency: inconclusive: 89.4 µM [inhibitor, partial curve, poor fit]
[4]
  Potency: inconclusive: 89.4 µM [inhibitor, single point]

## CCOc1ccccc1O[C@H](c1ccccc1)[C@H]1CNCCO1
[1]
  Potency: inactive
[2]
  Potency: inconclusive: 33.5 µM [cytotoxic, single point]
[11]
  Potency: inconclusive: 26.6 µM [cytotoxic, partial curve]
[10]
  Potency: active: 22.4 µM

## O[Si](c1ccccc1)(c1ccccc1)c1ccccc1
[1]
  Potency: inconclusive: 19.3 µM
[2]
  Potency: inconclusive: 15.4 µM [rising, partial curve]
[7]
  Potency: inconclusive: 77 µM [cytotoxic, single point]

## O=[N+]([O-])c1ccc2ncccc2c1
[1]
  Potency: inactive
[2]
  Potency: inactive
[12]
  activity, negative = inhibition: inconclusive: 7%
[8]
  Potency: inconclusive: 61.3 µM [activator, partial curve, poor fit]
[4]
  Potency: active: 40 µM

## Cc1ccc2nc(N)[nH]c(=O)c2c1Sc1ccncc1
[1]
  Potency: inconclusive: 16.8 µM [falling, partial curve, poor fit]
[2]
  Potency: inactive
[6]
  Potency: inconclusive: 33.5 µM [cytotoxic, single point]
[7]
  Potency: inconclusive: 33.5 µM [cytotoxic, single point]
[13]
  Potency: inconclusive: 0.0056 µM [activator, full curve, poor fit]
[10]
  Potency: inconclusive: 4.47 µM [activator, partial curve, poor fit]
[4]
  Potency: active: 1.55 µM
[5]
  Potency: active: 5.49 µM

## CCC(=O)OC(=O)CC
[1]
  Potency: inactive
[2]
  Potency: active: 54 µM
[3]
  Potency: active: 62.8 µM

## O=C(c1ccccc1)c1ccc(O)cc1
[1]
  Potency: active: 43.8 µM
[2]
  Potency: inconclusive: 69.4 µM [rising, single point]
[6]
  Potency: inconclusive: 69.4 µM [cytotoxic, single point]
[4]
  Potency: active: 40.4 µM

## CC(C)COC(=O)c1ccc(O)cc1
[1]
  activity change, negative = inhibition: inconclusive: -54%
[2]
  Potency: inconclusive: 61.1 µM
[6]
  Potency: inconclusive: 68.5 µM [cytotoxic, single point]
[3]
  Potency: inconclusive: 70.9 µM [inhibitor, partial curve, poor fit]
[5]
  Potency: active: 25.2 µM

## CC[N+](CC)(CC)CCOc1ccc(/C=C/c2ccccc2)cc1
[1]
  activity change, negative = inhibition: inconclusive: 2.25% [at 42.5 µM]
[2]
  Potency: inconclusive: 7.5 µM [cytotoxic, single point]
[14]
  Potency: inactive
[3]
  Potency: active: 15.5 µM
[4]
  Potency: inconclusive: 43.6 µM [inhibitor, single point]
[5]
  Potency: inactive

## OC1CCC(C2CCCCC2)CC1 (stereo not drawn)
[1]
  activity change, negative = inhibition: inconclusive: -1.43%
[2]
  Potency: inactive
[6]
  Potency: inactive
[4]
  Potency: inconclusive: 79.6 µM [inhibitor, single point]
[5]
  Potency: inconclusive: 39.9 µM [inhibitor, partial curve]

## COc1cc(-c2ccc(N=C=O)c(OC)c2)ccc1N=C=O
[1]
  Potency: inactive
[2]
  Potency: inactive
[8]
  Potency: inactive
[4]
  Potency: inconclusive: 43.4 µM [inhibitor, single point]

## CCCCC/C=C\C/C=C\CCCCCCCC(=O)OC
[14]
  Potency: inconclusive: 61.1 µM [activator]

## Cc1cn([C@H]2C[C@H](N=[N+]=[N-])[C@@H](CO)O2)c(=O)[nH]c1=O
[14]
  Potency: inconclusive: 15.8 µM [activator, single point]
[9]
  Potency: inconclusive: 35.5 µM [activator, single point]

## CC(C)=CCOc1ccc(/C=C/C(=O)c2ccc(OCC=C(C)C)cc2OCC(=O)O)cc1
[13]
  Potency: inconclusive: 3.16 µM [activator, full curve, poor fit]
[10]
  Potency: inconclusive: 7.94 µM [activator, partial curve]
